Experimental findings from PubChem BioAssay (NCI) are described below.

As a reminder, the GI50 is the concentration giving 50% growth inhibition. As a reminder, the TGI is the concentration at which net growth stops. A lower TGI goes with greater sensitivity of the cells.

Values joined by “and” are separate entries in the source; they are usually repeats but may differ in a detail not shown here. Identical values can stand only once.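 All cell lines were grown in 96-well plates and treated with compound for 48 hours. Here, GI50 denotes the concentration required for 50% inhibition of growth. At the TGI there is no net growth.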 Numbered stars: 1 amine (or outer) side, 2 acyl side, 3 side chain; on linkers, the order of the positions; unused ones are H or OH. Bridge positions count the residues as written; N and C are the ends. Square brackets hold non-standard residues; d marks the D form. Peptide text beside a SMILES is read from it. I, II: the chains in the order shown. Actinocin(9to1) = Cc1c2oc3c(C)ccc(C(=O)[*:1])c3nc-2c(C(=O)[*:2])c(N)c1=O; NMeV = CN[CH](C(=O)O)C(C)C; Sar = CNCC(=O)O

The subject of this assay is NCI-H322M lung. In words: DTP human tumour cell line panel, 48 h.
For `O=C(N/N=C/c1ccccc1O)C(=O)Nc1ccc(F)cc1`, the GI50 is 2.25 µM and the TGI was determined as 55.9 µM.
Compound `COC(=O)/C=C/c1cc(O)c2c(c1)[C@H](C(=O)OC)[C@@H](c1ccc(O)c(O)c1)O2` came in with a TGI of over 100 µM.
The same measure, in the same setting: for `O=c1[nH]nc(-c2ccccc2)n1/N=C/c1c(O)ccc2ccccc12` the value was over 100 µM.
Consider `C=C(C)C(=O)[C@@]12C(=O)[C@@H](C)CC[C@H]1[C@H](C)C[C@@H]2C=C(C)C`, for which the TGI is over 100 µM.
`Fc1ccc(C2SCc3nc4ccccc4n32)cc1` (configuration not stated): the TGI was over 100 µM.
On to `CC(=O)O[C@H]1CCC(C)=CCC[C@@]2(C)C(CC[C@@H]2[C@@H](C)/C=C/C(C)C)c2ccc(cc2C(=O)O)C1` (some centres not stated), for which the TGI came to 17.6 µM.
As for `CCOC(=O)/C=C(/C(=O)OCC)n1cc(C)c(=O)n(Cc2cn(COCCOC(C)=O)nn2)c1=O`, the concentration for total growth inhibition (TGI) was over 100 µM.
In the case of `COc1ccc(Cl)cc1NC(=O)C(Br)C(Br)C(=O)O` (configuration not stated), the GI50 was 11.6 µM and the total growth inhibition concentration (TGI) is over 59.2 µM.
For `O=C1COc2ccc([N+](=O)[O-])cc2C(=O)C1`, the TGI is over 10 µM.
`CCCNC(C#N)c1ccc(C(C#N)NCCC)cc1` (configuration not stated) registered a TGI of over 100 µM.
In turn, `NC(=S)Nc1[nH]c(=S)nc2c1SC1=N/C(=C\c3ccco3)C(=O)N12` returned a concentration for total growth inhibition (TGI) of over 100 µM.
On to `O=Nc1ccc2ccccc2c1O`, for which the GI50 is 20.3 µM and the TGI was found to be 39.2 µM.
Turning to `CCOC(=O)/C=C/C(C(=O)/C=C/c1ccc(O)c(OC)c1)=C(O)\C=C\c1ccc(O)c(OC)c1`, the GI50 is 8.42 µM and the TGI is over 100 µM.
`Cc1c2oc3c(C)ccc(C(=O)NC4C(=O)NC(C(C)O)C(=O)N5CCCC5C(=O)N(C)CC(=O)N(C)C(C(C)C)C(=O)OC4C)c3nc-2c(C(=O)NC2C(=O)NC(C(C)O)C(=O)N3CCCC3C(=O)N(C)CC(=O)N(C)C(C(C)C)C(=O)OC2C)c(N)c1=O` (configuration not stated) (I: TTP[Sar][NMeV] / II: TTP[Sar][NMeV]; ester I:1-I:C, II:1-II:C; linker I:N-II:N via Actinocin(9to1); configuration not given here) returned a TGI of over 23.3 µM.
Turning to `Cc1cc(Nc2ncnc3ccc(NC4=NC(C)(C)CO4)cc23)ccc1Oc1ccn2ncnc2c1`, the GI50 was 10.6 µM and > 10 µM; the TGI was 42.5 µM and > 10 µM.
As to `CC(C)(C)C(=O)ON1N=NC2C3CC(OCc4ccccc4)(OCc4ccccc4)C(O3)C21` (configuration not stated), the TGI is over 100 µM.
As for `CCSC1=C(C)N(C=NC(C)(C)C)CC1`, the TGI is over 100 µM.
Take `[N-]=[N+]=CC(=O)OCC1SCCCS1`: the TGI was over 100 µM.
The same measure, in the same setting: the result for `COC(=O)/C=C1\CCC(C)(C(=O)NS(=O)(=O)c2ccc(C)cc2)C1(C)C` (configuration not stated) reads over 100 µM.
`O=C(CC(=O)N1N=C(N2c3ccccc3Sc3ccccc32)CC1c1ccccc1)Nc1ccc(Cl)cc1` (configuration not stated) registered a concentration for total growth inhibition (TGI) of over 100 µM.
`COc1ccc(N=N/C(=N/NC(=O)c2ccccc2)c2ccc(N(CCC#N)CCC#N)cc2C)cc1` yielded a TGI of over 100 µM.
For `COc1ccccc1/C=N\N=C(N/N=C/c1ccccc1OC)N/N=C/c1ccccc1OC`, the GI50 is 2.62 µM and the TGI was over 100 µM.
The compound `CC(=O)CCCCO` returned a TGI of over 100 µM.
Take `O=C1C(Br)=CC2(C=C1Br)CCNC1=C2C(=O)c2cccnc2C1=O`: the TGI turned out to be 34.3 µM.
In turn, `O=C(OCc1ccccc1)C1(N2CN(C3(C(=O)OCc4ccccc4)CCCC3)CN(C3(C(=O)OCc4ccccc4)CCCC3)C2)CCCC1` had a TGI of over 10 µM.
As to `N#CCc1ncc(-c2ccc(C(F)(F)F)cc2)c(NC2CCCCCC2)n1`, the GI50 was over 10 µM and the TGI was over 10 µM.
Compound `CSC1=C(C#N)C(=O)N(c2ccc(C)cc2)C(=S)C1C#N` (configuration not stated) displayed a TGI of over 100 µM.
As to `C=C1C(=O)OCC2C(C(=O)O)=CC3C(C)C(C)=CC123` (configuration not stated), the TGI is 39 µM.
`NC(=O)C(c1ccccc1)N1CCOCC1` (configuration not stated) showed a TGI of over 100 µM.
Take `COc1ccc2c(c1)C(=O)/C(=C/c1ncc([N+](=O)[O-])n1C)O2`: the GI50 is 2.9 µM and the TGI came out at 13.5 µM.
On to `c1ccc2c(c1)CCc1cc3cc4c(nc3nc1-2)-c1ccccc1CC4`, for which the TGI is over 100 µM.
Same read-out and setting: the result for `O=C(c1ccccc1)c1ccc2nc(-c3c(Cl)c(Cl)c(Cl)c(Cl)c3C(=O)N/N=C/c3ccccc3)[nH]c2c1` reads over 100 µM.
Turning to `c1ccc(-n2nnnc2-c2cccc3ccccc23)cc1`, the GI50 is 9.64 µM and the TGI was over 100 µM.
As for `CC(=O)OCC1OC(OC2CC3C(C)(C)C(O)CC[C@]3(C)C3CCC45CC4(CC[C@H]5C(C)CC(O)C4OC4(C)C)[C@]23C)C(O)C(O)C1O` (some centres not stated), the GI50 is 13.2 µM; the TGI is 13.6 µM and 26.3 µM.
In turn, `CCOC(=O)C1SC(=Nc2ccc(Cl)c(Cl)c2)N=C1C` (configuration not stated) showed a TGI of over 100 µM.
For `C=CC1CC12C(=O)C1OC2(C)C2C(=O)c3c(O)ccc(O)c3C(=O)C12` (configuration not stated), the GI50 was 6.52 µM and the TGI is 18.6 µM.
Regarding `O=C1C=C(Br)c2c(Br)sc(Br)c21`, the TGI worked out at 45 µM.
For `O=C(C(=O)N1CC2C=CC1CC2)c1c[nH]c2ccccc12` (configuration not stated), the TGI was over 100 µM.
Compound `CCN(c1ccc(Br)cc1)c1c(Br)c(=O)nc2ccccn12` returned a TGI of over 100 µM.
Take `COC(=O)/C=C(/C(=O)OC)c1c(C)c(C)c2c(C)cc(C)cc(C)c1-2`: the TGI was over 100 µM.
For the compound `O=S1(=O)c2ccccc2C(=NO)c2ccccc21`, the TGI is over 100 µM.
With `COc1cccc2c1C(=O)c1c(O)c3c(c(O)c1C2=O)C[C@@](O)(C(=O)CO)C[C@@H]3OC1C[C@H](N)[C@H](O)[C@H](C)O1` (some centres not stated), the GI50 was 0.286 µM and the TGI came out at 4.28 µM.
For the compound `CC1=CCC23C(C1)OC(Br)(C=CC2(C)O)C3(C)C` (configuration not stated), the TGI is over 100 µM.
In turn, `C/C(=N\NC(N)=S)C(CN(CC(C)C)CC(C)C)C(=O)Nc1ccc(C)cc1C` (configuration not stated) showed a TGI of over 100 µM.
With `CSc1ccc2c3c(n(C[C@H](O)CO)c(=O)c2c1)-c1ccccc1C3=O`, the GI50 is 5.11 µM and the TGI is over 100 µM.
Take `NC1=NC(c2ccc(Cl)cc2)C2=C(N1)/C(=C/c1ccc(Cl)cc1)CCC2` (configuration not stated): the GI50 was 31.3 µM and the TGI was over 100 µM.
Consider `CCCCc1ccc(Nc2ncc3[nH]cnc3n2)cc1`, for which the concentration for total growth inhibition (TGI) was over 100 µM.
Compound `c1ccc2c(c1)nc(NC1CCCC1)c1[nH]c(C3CCCC3)nc12` returned a total growth inhibition concentration (TGI) of over 100 µM.
For the compound `O=C1c2c(nc3ccccc3c2-c2ccccc2)CN1Nc1ccccn1`, the TGI is over 100 µM.
Same read-out and setting: the result for `Fc1ccc(N=NN2CCCC2)cc1` reads over 100 µM.
As for `CCCCCCCCCCCCSC(=N)N`, the GI50 is 19.4 µM and the TGI was found to be 34.2 µM.
Take `COc1ccc(-c2ccc(-c3ccc(-c4ccc(C(=N)N)cc4)s3)s2)cc1OC`: the GI50 was 5.49 µM and the TGI came out at 21.2 µM.
Turning to `CN(NC(=O)CCCl)C1=NCCCCN1`, the TGI is over 100 µM.
`Cc1ccc2c(O)c(O)cc(NC(C)CCCN)c2n1` (configuration not stated): the GI50 is 13.5 µM and the TGI is over 100 µM.
In the case of `CO[C@@H]1CC(=O)C2(CC(=O)O[C@@H]2/C=C(\C)CCC=C(C)C)C[C@@H]1O` (some centres not stated), the GI50 was 1.05 µM and the TGI is 2.91 µM.
On to `CO[C@@H]1/C=C(C)/C=C/[C@@H](C)/C=C(\C)C(=O)OC(/C(C)=C/C=C(\C)CNC(=O)[C@H](CO)NC=O)[C@@H](C)/C=C/C=C/[C@H](OC)CC/C=C(C)/C=C/C1` (some centres not stated), for which the GI50 is under 0.005 µM and the TGI was determined as 0.21 µM.
`Cn1cc(-c2cnc3ccc4ccc(CS(=O)(=O)NCc5ccccn5)cc4c(=O)c3c2)cn1`: the GI50 is 21.2 µM and the TGI was over 100 µM.
